Measured values published in patent publication US5663146A, “Polypeptide analogues having growth hormone releasing activity” (Administrators of the Tulane Educational Fund, priority 1991, dated 1997).
Where “and” joins values, the source holds several entries; their conditions need not be identical. Equal values may be shown once. Not every detail of the peptide structures is certain; ends, links or a residue may be inferred. Where a SMILES comes first, the peptide text is derived from it. [ ]: non-standard residue; d: D form. d2Nal = N[C@H](Cc1ccc2ccccc2c1)C(=O)O; βAla = NCCC(=O)O

How the values were obtained:
[1] = test system: Pentobarbital Anesthetized Rats; experiment: In vivo GH release in rats after oral (intragastric) administration, serum GH by RIA; design: species or system rat (immature female Sprague-Dawley)
[2] = test system: Pentobarbital Anesthetized Rats; experiment: In vivo GH release in rats, i.v. injection, serum GH by RIA; design: species or system rat (immature female Sprague-Dawley); conditions: rats sacrificed 10 minutes after final injection, mean ± SEM
[3] = 10 mg/kg intragastric, sacrificed at 15'
[4] = 10 mg/kg intragastric, sacrificed at 20'
[5] = 30 mg/kg intragastric, time not marked at the value (head: unmarked = 15')

Structure (SMILES)	Serum GH nb/ml ± SEM (N = 6 at:) 15' (20') (30') [1, 3] [nb/ml]	Serum GH nb/ml ± SEM (N = 6 at:) 15' (20') (30') [1, 4] [nb/ml]	Serum GH nb/ml ± SEM (N = 6 at:) 15' (20') (30') ([1]; 10* mg/kg intragastric, light suspension, acetic acid added, time not marked) [nb/ml]	Serum GH nb/ml ± SEM (N = 6 at:) 15' (20') (30') ([1]; 30** mg/kg intragastric, heavy suspension, acetic acid added, time not marked) [nb/ml]	GH Released Serum GH ng/ml + SEM (N = 6) ([2]; total dose 0.1 μg i.v.) [ng/mL]	GH Released Serum GH ng/ml + SEM (N = 6) ([2]; total dose 0.3 μg i.v.)	GH Released Serum GH ng/ml + SEM (N = 6) ([2]; total dose 1.0 μg i.v.)	GH Released Serum GH ng/ml + SEM (N = 6) ([2]; total dose 3.0 μg i.v.)	Serum GH nb/ml ± SEM (N = 6 at:) 15' (20') (30') [1, 5] [nb/ml]	GH Released Serum GH ng/ml + SEM (N = 6) ([2]; total dose 10.0 μg i.v.) [ng/mL]	GH Released Serum GH ng/ml + SEM (N = 6) ([2]; total dose 0.1 μg i.v., listed as His-DTrp-Ala--Trp DPhe--Lys--NH2) [ng/mL]	GH Released Serum GH ng/ml + SEM (N = 6) ([2]; total dose 0.3 μg i.v., listed as His-DTrp-Ala--Trp DPhe--Lys--NH2) [ng/mL]	GH Released Serum GH ng/ml + SEM (N = 6) ([2]; total dose 1.0 μg i.v., listed as His-DTrp-Ala--Trp DPhe--Lys--NH2) [ng/mL]
C[C@H](NC(=O)[C@@H](Cc1ccc2ccccc2c1)NC(=O)[C@@H](C)N)C(=O)N[C@@H](Cc1c[nH]c2ccccc12)C(=O)N[C@H](Cc1ccccc1)C(=O)N[C@@H](CCCCN)C(N)=O [DAla-DβNal--Ala--Trp-DPhe--Lys--NH2] (H-[dA][d2Nal]AW[dF]K-NH2)	706	1062	116	2038	1381 ± 222	2831 ± 304 ng/mL	2886 ± 179 ng/mL	3678 ± 287 ng/mL					
C[C@H](NC(=O)[C@@H](Cc1ccc2ccccc2c1)NC(=O)CN)C(=O)N[C@@H](Cc1c[nH]c2ccccc12)C(=O)N[C@H](Cc1ccccc1)C(=O)N[C@@H](CCCCN)C(N)=O [Gly-DβNal--Ala--Trp-DPhe--Lys--NH2] (H-G[d2Nal]AW[dF]K-NH2)	957	1685				1237 ± 249 ng/mL and 1301 ± 260 ng/mL and 1387 ± 352 ng/mL	2325 ± 46 ng/mL and 2211 ± 146 ng/mL and 1958 ± 353 ng/mL	2694 ± 370 ng/mL and 2364 ± 365 ng/mL and 2605 ± 97 ng/mL	1072	3454 ± 159			
C[C@H](NC(=O)[C@@H](Cc1c[nH]c2ccccc12)NC(=O)[C@@H](N)Cc1c[nH]cn1)C(=O)N[C@@H](Cc1c[nH]c2ccccc12)C(=O)N[C@H](Cc1ccccc1)C(=O)N[C@@H](CCCCN)C(N)=O [His-DTrp--Ala--Trp-DPhe--Lys--NH2, reference compound] (H-H[dW]AW[dF]K-NH2)	1131	686			540 ± 148	751 ± 88 ng/mL	1790 ± 252 ng/mL	2481 ± 209 ng/mL	1810		200 ± 40	505 ± 50	1640 ± 215
C[C@H](NC(=O)[C@@H](Cc1ccc2ccccc2c1)NC(=O)CCN)C(=O)N[C@@H](Cc1c[nH]c2ccccc12)C(=O)N[C@H](Cc1ccccc1)C(=O)N[C@@H](CCCCN)C(N)=O [βAla-DβNal--Ala--Trp-DPhe--Lys--NH2] (H-[βAla][d2Nal]AW[dF]K-NH2)	1202	1217				1937 ± 343 ng/mL	3603 ± 645 ng/mL	4000 ± 500 ng/mL					
